How the values were obtained:
Assay in all cases: minimum inhibitory concentration
Chloramphenicol = compound: O=C(N[C@H](CO)[C@H](O)c1ccc([N+](=O)[O-])cc1)C(Cl)Cl [Chloramphenicol]
Procedure: (§1)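 Broth microdilution MIC per ISO 10932 on precoated VetMIC Lact-1 plates (tylosin, vancomycin and ampicillin plates prepared manually) against lactic acid bacteria and bifidobacteria isolates. Plates were read visually after 48 h anaerobic incubation (bifidobacteria 72 h; enterococci and staphylococci 24 h aerobic) at species-specific temperatures of 30 or 37 °C. Values prefixed with < or > are outside the tested dilution range.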

Tetracycline = compound: CN(C)[C@@H]1C(O)=C(C(N)=O)C(=O)[C@@]2(O)C(O)=C3C(=O)c4c(O)cccc4[C@@](C)(O)[C@H]3C[C@@H]12 [Tetracycline]
Procedure: as §1

Neomycin = compound: NC[C@@H]1O[C@H](O[C@H]2[C@@H](O)[C@H](O[C@@H]3[C@@H](O)[C@H](N)C[C@H](N)[C@H]3O[C@H]3O[C@H](CN)[C@@H](O)[C@H](O)[C@H]3N)O[C@@H]2CO)[C@H](N)[C@@H](O)[C@@H]1O [Neomycin]
Procedure: as §1

Ampicillin = compound: CC1(C)S[C@@H]2[C@H](NC(=O)[C@H](N)c3ccccc3)C(=O)N2[C@H]1C(=O)O [Ampicillin]
Procedure: as §1

Kanamycin = compound: NC[C@H]1O[C@H](O[C@H]2[C@H](O)[C@@H](O[C@H]3O[C@H](CO)[C@@H](O)[C@H](N)[C@H]3O)[C@H](N)C[C@@H]2N)[C@H](O)[C@@H](O)[C@@H]1O [Kanamycin]
Procedure: as §1

Gentamicin = compound: CNC(C)C1CCC(N)C(OC2C(N)CC(N)C(OC3OCC(C)(O)C(NC)C3O)C2O)O1 [Gentamicin]
Procedure: as §1

Erythromycin = compound: CC[C@H]1OC(=O)[C@H](C)[C@@H](O[C@H]2C[C@@](C)(OC)[C@@H](O)[C@H](C)O2)[C@H](C)[C@@H](O[C@@H]2O[C@H](C)C[C@H](N(C)C)[C@H]2O)[C@](C)(O)C[C@@H](C)C(=O)[C@H](C)[C@@H](O)[C@]1(C)O [Erythromycin]
Procedure: as §1

Streptomycin = compound: CN[C@@H]1[C@H](O[C@H]2[C@H](O[C@H]3[C@H](O)[C@@H](O)[C@H](N=C(N)N)[C@@H](O)[C@@H]3N=C(N)N)O[C@@H](C)[C@]2(O)C=O)O[C@@H](CO)[C@H](O)[C@H]1O [Streptomycin]
Procedure: as §1

Vancomycin = compound: CN[C@H](CC(C)C)C(=O)N[C@H]1C(=O)N[C@@H](CC(N)=O)C(=O)N[C@H]2C(=O)N[C@H]3C(=O)N[C@H](C(=O)N[C@H](C(=O)O)c4cc(O)cc(O)c4-c4cc3ccc4O)[C@H](O)c3ccc(c(Cl)c3)Oc3cc2cc(c3O[C@@H]2O[C@H](CO)[C@@H](O)[C@H](O)[C@H]2O[C@H]2C[C@](C)(N)[C@H](O)[C@H](C)O2)Oc2ccc(cc2Cl)[C@H]1O [Vancomycin]
Procedure: as §1

Clindamycin = compound: CCC[C@@H]1C[C@@H](C(=O)N[C@@H]([C@H]2O[C@H](SC)[C@H](O)[C@@H](O)[C@H]2O)[C@H](C)Cl)N(C)C1 [Clindamycin]
Procedure: as §1
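Further: isolates derived from commercial starter, protective, probiotic or feed-additive cultures, from fermented products, from human gut mucosa or feces, and from human milk or colostrum.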

Test System	minimum inhibitory concentration (Chloramphenicol) [µg/mL]	minimum inhibitory concentration (Tetracycline) [µg/mL]	minimum inhibitory concentration (Neomycin) [µg/mL]	minimum inhibitory concentration (Ampicillin) [µg/mL]	minimum inhibitory concentration (Kanamycin) [µg/mL]	minimum inhibitory concentration (Gentamicin) [µg/mL]	minimum inhibitory concentration (Erythromycin) [µg/mL]	minimum inhibitory concentration (Streptomycin) [µg/mL]	minimum inhibitory concentration (Vancomycin) [µg/mL]	minimum inhibitory concentration (Clindamycin) [µg/mL]
Bifidobacterium adolescentis IM765 (strain group: human intestinal mucosa or faeces)	2	1	64	0.063	256	64	0.12	128	0.5	0.12
Bifidobacterium adolescentis IM766 (strain group: human intestinal mucosa or faeces)	2	1	128	< 0.032	1020	256	0.12	> 256	0.5	0.12
Bifidobacterium adolescentis IM767 (strain group: human intestinal mucosa or faeces)	2	16	256	0.063	512	128	0.25	128	1	0.12
Bifidobacterium adolescentis IM769 (strain group: human intestinal mucosa or faeces)	2	16	128	0.25	512	128	0.25	64	0.5	0.12
Bifidobacterium adolescentis IM775 (strain group: human intestinal mucosa or faeces)	2	16	256	0.25	512	256	0.25	128	0.5	0.12
Bifidobacterium adolescentis IM776 (strain group: human intestinal mucosa or faeces)	2	16	256	0.125	512	256	0.25	64	0.5	0.12
Bifidobacterium adolescentis IM777 (strain group: human intestinal mucosa or faeces)	2	16	256	0.25	512	128	0.25	128	0.5	0.12
Bifidobacterium adolescentis IM778 (strain group: human intestinal mucosa or faeces)	2	16	256	0.25	512	128	0.25	128	0.5	0.12
Bifidobacterium adolescentis IM779 (strain group: human intestinal mucosa or faeces)	2	16	256	0.125	512	256	0.25	128	0.5	0.25
Bifidobacterium adolescentis IM780 (strain group: human intestinal mucosa or faeces)	2	16	256	0.125	512	256	0.25	256	0.5	0.12
Bifidobacterium adolescentis IM781 (strain group: human intestinal mucosa or faeces)	2	1	128	< 0.032	256	128	0.25	256	1	0.12
Bifidobacterium adolescentis IM782 (strain group: human intestinal mucosa or faeces)	2	2	128	0.125	512	128	0.12	256	0.5	0.06
Bifidobacterium adolescentis IM783 (strain group: human intestinal mucosa or faeces)	2	16	> 256	0.25	1020	256	0.25	> 256	0.5	0.12
Bifidobacterium adolescentis IM785 (strain group: human intestinal mucosa or faeces)	4	8	> 256	0.125	1020	256	0.25	> 256	0.5	0.12
Bifidobacterium adolescentis IM788 (strain group: human intestinal mucosa or faeces)	2	16	> 256	0.125	1020	256	0.25	256	0.5	0.12
Bifidobacterium adolescentis IM789 (strain group: human intestinal mucosa or faeces)	2	16	32	0.063	512	128	0.25	64	0.5	0.06
Bifidobacterium adolescentis IM792 (strain group: human intestinal mucosa or faeces)	2	16	256	0.125	512	128	0.12	64	0.5	0.06
Bifidobacterium adolescentis IM793 (strain group: human intestinal mucosa or faeces)	2	16	64	0.25	256	64	0.12	32	0.5	0.06
Bifidobacterium adolescentis IM794 (strain group: human intestinal mucosa or faeces)	2	1	128	0.125	512	128	0.12	256	0.5	0.06
Bifidobacterium adolescentis IM795 (strain group: human intestinal mucosa or faeces)	2	1	> 256	0.125	1020	256	0.25	> 256	0.5	0.25
Bifidobacterium adolescentis IM796 (strain group: human intestinal mucosa or faeces)	2	16	256	0.063	512	128	0.25	128	0.5	0.12
Bifidobacterium adolescentis IM797 (strain group: human intestinal mucosa or faeces)	1	0.5	128	0.063	512	64	0.06	256	< 0.25	0.06
Bifidobacterium adolescentis IM801 (strain group: human intestinal mucosa or faeces)	2	1	64	0.063	512	64	0.12	256	0.5	0.06
Bifidobacterium adolescentis IM803 (strain group: human intestinal mucosa or faeces)	2	1	128	0.125	1020	128	0.25	128	0.5	0.06
Bifidobacterium adolescentis IM804 (strain group: human intestinal mucosa or faeces)	2	16	256	0.063	512	256	0.25	128	0.5	0.12
Bifidobacterium animalis IM665 (strain group: human intestinal mucosa or faeces)	2	16	256	0.25	1020	128	0.25	256	0.5	0.12
Bifidobacterium animalis IM666 (strain group: human intestinal mucosa or faeces)	2	16	256	0.125	512	128	0.25	> 256	0.5	0.12
Bifidobacterium animalis IM726 (strain group: human milk or colostrum)	2	8	64	1	128	32	0.06	16	2	< 0.03

Reference: the supplement of paper PMC9542798
